To fix the notation:
B1: LINE1-mini (parent)
chain: GGCAGAGCUCAACACAGCGUGGCAAAGUGGCUGUGGCUAGACUGCC

From the RNAGym collection of RNA variant scans (doi:10.7554/elife.90254) come the findings set out here.

The source gives no read counts; variants with many changes may rest on few reads.

The variants in the data set derive from B1. As to the kind of experiment: self-cleavage, relative activity (ratio to wild type); higher = more cleavage; in vitro, sequencing; the parent is a self-cleaving ribozyme.
For G5C G7U A24U G44U, the self-cleavage came out at 0.03.

Consider G5U A6G U9A C18G G44U, for which the self-cleavage was found to be 0.01. For G5C G21A G27A G36A, the self-cleavage was determined as 0.05. Take G5C C10A A24U G27U: the self-cleavage is 0.02. For G5C G36A C37U, the self-cleavage was determined as 0.67. Take G5C G21U A41C: the self-cleavage is 0.08. Under G5C C10A C18U G35U stands 0; under G5C C18A G33U C37G, 0.02. With G5C G7U A11C U34C G36A, the self-cleavage stood at 0.05.

On to G5C G17U G40C, for which the self-cleavage was determined as 0.05. Consider G5C G19C U43G C45U, for which the self-cleavage worked out at 0.01.

As to G5U A12C A25U G36A, the self-cleavage worked out at 0.02. G5C C18A A24C A25C A26C G29U G36A A41G: the self-cleavage was found to be 0. As for G5C G21A G27C, the self-cleavage was 0.16.

Regarding G5C G29U C42A, the self-cleavage was found to be 0.02. Under G5C G19U C23G G35A stands 0.02; under G5C C13G G35A, 0. Under G5U A12C C46A stands 0.02. G5C U9G G30C G36A G40U: the self-cleavage was 0.01. In the case of G5C G7C C13U C46A, the self-cleavage was 0.01. Under G5C G27A G35A stands 0.05; under G5C G7U C42A, 0.3; under G5C C10U G22C, 0.01. Consider G5C U9A A26C, for which the self-cleavage is 0.03.

Consider G5C G27C U43C, for which the self-cleavage came to 0.04. Take G5C C23U U28C C45A: the self-cleavage stood at 0.07. Consider G5U A11G A12U, for which the self-cleavage turned out to be 0.09. On to G5C C31U U32G, for which the self-cleavage came out at 0.1. On to G5U A12G A25G, for which the self-cleavage is 0.07.

As for G5C C23G U28C G30C, the self-cleavage turned out to be 0.03. Turning to G5C G17C U20G, the self-cleavage stood at 0.03.

With G5C C18U G40A, the self-cleavage came to 0.02. Next, G5U A11C G44A: 0.02. G5C C13U C15A U20A A24U: the self-cleavage amounted to 0.01. For the variant G5U A11C U38A, the self-cleavage was 0.02.

On to G5C U32A G40U, for which the self-cleavage amounted to 0.02. With G5U A12G C18G G21U, the self-cleavage is 0.02. Turning to G5C C13G G17A, the self-cleavage turned out to be 0.03. For the variant G5C C18U C23A G27U C31G G40U C45G, the self-cleavage was determined as 0.01.

For G5C G19U G22A, the self-cleavage is 0.07. Next, G5C C10U A16G A26G G40C: 0.02; G5U A6U A26U C31U C46U: 0.03; G5C U20G G21U: 0.02. Consider G5U A6U C10U G17U U38G G40A, for which the self-cleavage was determined as 0.07. With G5C C10G A16C A41U, the self-cleavage came to 0.02.

As for G5C C13G C45A, the self-cleavage stood at 0.

On to G5C G27C G40C, for which the self-cleavage was 0.2. Turning to G5C C13G U20C C31G, the self-cleavage came out at 0.01. For the variant G5C C13A C15A G44U, the self-cleavage is 0.02. On to G5U A11U C13U A39U G40A A41C U43G, for which the self-cleavage was determined as 0.01. Under G5C C23G G33C U43C stands 0.02; under G5C U9C G27U, 0.02.

As for G5C G7U C18A U34C, the self-cleavage amounted to 0.05. Turning to G5C G21A U28G G29C G35A, the self-cleavage turned out to be 0.01. Turning to G5C G7A C10A A16C, the self-cleavage is 0.07. In the case of G5C C8A C18G U20A G29U G30A G33C U38A, the self-cleavage is 0.04. On to G5C C10U G22U G35U G36C, for which the self-cleavage amounted to 0.03.

On to G5C C8G C10A A24C, for which the self-cleavage turned out to be 0.01. For G5C G19C U32A, the self-cleavage is 0.01. On to G5C G19U G30A C37G C46U, for which the self-cleavage was found to be 0.04. Regarding G5C C8U U9C G35A, the self-cleavage was 0.13. With G5C G21A G22U U34A, the self-cleavage was 0.04. For G5C G7C C15G G27U U32C, the self-cleavage was 0.01. For the variant G5C C18U G29C, the self-cleavage came to 0.02. For G5C C13U C18A, the self-cleavage stood at 0.02. Turning to G5C G22U G27A G35C, the self-cleavage was 0.04.

As to G5C U9A C18G U32A, the self-cleavage came to 0.06. On to G5C G29U C37U, for which the self-cleavage was determined as 0.04. Take G5C C23G C31A C37G C46U: the self-cleavage was determined as 0.02.

Consider G5C C15G C18U C23G A26C G27U, for which the self-cleavage turned out to be 0.01. Under G5C C23G A25C G27C stands 0.03. Next, G5C G29U U34A: 0.18; G5C C8U A16G C23U C42U G44A: 0.03. Under G5C G17C U20A G21U A24U C46A stands 0; under G5U A6U C13G G19C G30U, 0.1; under G5U A6G A24C C37A, 0.04. In the case of G5C C8G U9C C23A, the self-cleavage came to 0.03. Turning to G5U A6U C15A A26C, the self-cleavage worked out at 0.04.

With G5C C15U C37G C46U, the self-cleavage is 0.06. Under G5U A11U C45U stands 0.01. As for G5C G22U A26C G40C C42G, the self-cleavage worked out at 0.06. Next, G5C C15U A24U U43C: 0.05.

For G5C G17A C31A U32C, the self-cleavage stood at 0.04. For the variant G5C U28A G29U A41C, the self-cleavage is 0.04.

Regarding G5C C18A G21U G22U, the self-cleavage is 0.07. For the variant G5C C8A C15G, the self-cleavage was found to be 0.05. Take G5C C8G A16U C31G U32G G36U U38C: the self-cleavage stood at 0.09. As for G5C G27C C46A, the self-cleavage is 0.07.

For the variant G5U A11G G33U, the self-cleavage amounted to 0.02. Under G5C C15G G21U stands 0.03; under G5C C8A C10A C31A U32A, 0.05; under G5C U9A C13U G19U G21C U38G, 0.05. Under G5C G40A G44C stands 0.04; under G5C C10A U38C, 0.04; under G5U A11G C13A C15A, 0.01.

Regarding G5C G7C U9A, the self-cleavage amounted to 0.03.

Consider G5U A6U C8G U34C, for which the self-cleavage stood at 0.02. As to G5C C13G G19U, the self-cleavage is 0.03. G5C U9G A25C: the self-cleavage amounted to 0.07. For the variant G5C G19U G22A G36A, the self-cleavage stood at 0.09. Regarding G5C C13A A25C G33A C37A, the self-cleavage amounted to 0.14. As for G5C C15A A16U C23G G30U U32G G36C A41U, the self-cleavage came out at 0.01. As to G5U A6G U32G C46U, the self-cleavage was 0.04.

Regarding G5C C8G G35A, the self-cleavage worked out at 0.01. As to G5U A6C A16G C18G C23U G30U, the self-cleavage is 0.01. Next, G5C G7A G30A U43C: 0.3; G5C C18A C37U: 0.01. Regarding G5C G7C C13U C31U, the self-cleavage is 0.1. As to G5U A6G C31U G40A, the self-cleavage was found to be 0. For the variant G5C C10G A16U G21C, the self-cleavage turned out to be 0.03. Next, G5C U9A A14U C15G C45A: 0.04.

On to G5C C10A A16G, for which the self-cleavage stood at 0.02.

With G5C C23A A26C C31U U38C U43A, the self-cleavage was 0.01. As to G5C U38G A41C, the self-cleavage was found to be 0.04. Turning to G5C C18U C31U U32G U34A, the self-cleavage came to 0.02. On to G5C G27U C45A, for which the self-cleavage is 0.12. In the case of G5C C10A A25C C31A C42A, the self-cleavage is 0.01. As to G5C G40U U43A, the self-cleavage was found to be 0.02. Take G5C G22C A26G U28G: the self-cleavage turned out to be 0.01.

For the variant G5C C8A C13A G21U C42U, the self-cleavage amounted to 0.09. In the case of G5C C10G A11C A12U C15A G17C C23A, the self-cleavage worked out at 0.01.

In the case of G5C G7U C18A A24C G30C G33C G35C, the self-cleavage worked out at 0.04. As for G5C G19C G21U A39C, the self-cleavage stood at 0.02. Under G5C C18G G21U stands 0.03. For the variant G5C C23U U38C, the self-cleavage is 0.02. With G5C C23A G30U U38C, the self-cleavage worked out at 0.03. Consider G5C G29U G40A, for which the self-cleavage is 0.06. As for G5C G35A C45A, the self-cleavage amounted to 0.05. As to G5C G17U C23G, the self-cleavage came out at 0.02. For G5C C15U G27A C37A G40U, the self-cleavage came to 0.15. Take G5C G7C C13A G17U U32G: the self-cleavage turned out to be 0.01. For the variant G5C C37U G40A U43G, the self-cleavage amounted to 0.05. As for G5C U20A A41G, the self-cleavage came out at 0.02.

For G5C G17C C18A G27U G36A, the self-cleavage was found to be 0.04.

As to G5C C8A C13A G35C, the self-cleavage came to 0.2. Under G5C U9A C15U G22C stands 0.06; under G5U A6U G30U C37A, 0.04. Take G5C G7U C13A C42G: the self-cleavage was found to be 0. For G5C C8A U20G G29C, the self-cleavage came to 0.06. Turning to G5C C15U A24C U38C A41C, the self-cleavage worked out at 0.07.

In the case of G5C C8G C13A G29U, the self-cleavage was 1.22. For G5U A6C G7A C10U G30U C31G G44A, the self-cleavage came to 0.16. Under G5C U20C U28C G29U A39G C45U stands 0. G5C C8U C13U: the self-cleavage was 0.1.

For G5C C10A U28G C46A, the self-cleavage amounted to 0.02.

As for G5C C10A G27U G40C, the self-cleavage was determined as 0.02. Take G5C C18G A25G G33U C46G: the self-cleavage amounted to 0.01.

As for G5C G22C G40A C45A, the self-cleavage stood at 0.04. In the case of G5C G19A A24C G30U, the self-cleavage amounted to 0.04. Next, G5C C13G G33C U43C C45U: 0.07; G5C C10U G22C C31A: 0.02; G5U A6C G7C U9C C18U G21U A24G U34G: 0.01. Turning to G5C C31G U34A C45A, the self-cleavage came out at 0.01.

Consider G5C G7C G17U A41C, for which the self-cleavage is 0.04. Regarding G5C G27C G35U C37G, the self-cleavage came out at 0.12. For the variant G5C C18U U28C G44C, the self-cleavage is 0.04. Under G5C G7C C13A G36U A41C stands 0.14; under G5C G33U C37A, 0.04; under G5C G22U U28C U34C, 0. With G5C G30U G40A G44A, the self-cleavage is 0.04.

Turning to G5C U9G C31U, the self-cleavage was 0.02. With G5C G19C G21U G30C C42U, the self-cleavage worked out at 0.04.

As for G5C G22A G29A U34A, the self-cleavage turned out to be 0.23. In the case of G5C C13U U34G A41G, the self-cleavage was found to be 0.02. Under G5U A11G G22C stands 0.02. Consider G5C G21A G30U U38A, for which the self-cleavage worked out at 0.01.

As for G5C C13G G33A U34A, the self-cleavage came out at 0.28.
